The values that follow come from PubChem BioAssay AID1963576 (National Center for Advancing Translational Sciences (NCATS), 2024).

About 60 (0.1%) of roughly 46,000 compounds were called active. About 3% were inconclusive and are not listed. The call rests on the fitted dose curve; in most records, active means well fitted inhibition curve with a large enough effect; inconclusive means small, poorly fitted or top-dose-only effect; inactive means no such curve, though single readings can be large or run the other way. The list shows a part of the results.

The experiment is described as follows: Primary qHTS assay for Inhibitors of ovarian cancer metastasis using an organotypic tumor microenvironment (TME) model. Further: nearly all actives have a fitted effect of over 65% in size.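 On activity change, negative = inhibition: plate controls were DMSO wells for no effect and tomatine positive control wells for full effect.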 The note with it: SKOV3ip1-GFP adhesion/invasion on 3D omental model, fluorescence; series mostly up to 45.8 µM; activity change, negative = inhibition: at the top concentration. In outline: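 qHTS, 4-pt dose (0.36-46 umol/L); SKOV3ip1-GFP, 1,200 cells/well, no FBS; primary omental fibroblast/mesothelial co-culture 48 h pre-grown; 2 h RT + 16 h 37 C; PBS wash, 4% PFA; GFP count 488/509 nm.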
As for `Cc1ccccc1Nc1c(-c2cccc(N(C)C)c2)nc2ccc(Br)cn12`, the “activity change, negative = inhibition” value was inactive: 0.927%.

In the case of `CC(C)C1C(=O)Nc2ccc(S(=O)(=O)NCc3ccc(Cl)cc3)cc21` (configuration not stated), the “activity change, negative = inhibition” value is inactive: -15.8%.

With `COc1ccc(C2C(C(N)=O)=C(C)Nc3nc(CCCO)nn32)cc1` (configuration not stated), the “activity change, negative = inhibition” value is inactive: 3.67%.

Turning to `Cc1ccc(CCNC(=O)c2cc(Nc3ccc(C)c(C)c3)nc3ccccc23)cc1`, the “activity change, negative = inhibition” value was inactive: -2.32%.

Turning to `Cc1ccc(NC(=O)CSc2c3c(nc4ccccc24)CCCC3)cc1F`, the “activity change, negative = inhibition” value is inactive: -22.6%.

As to `COc1ccc(-n2nc(C(=O)Nc3ccc(Cl)cn3)c3c4ccccc4n(C)c3c2=O)cc1Cl`, the “activity change, negative = inhibition” value was inactive: 21.7%.

`COC(=O)c1c(NC(=O)Cc2coc3ccc(C)cc23)sc2c1CCC2`: the “activity change, negative = inhibition” value was inactive: 4.96%.

For the compound `Cc1[nH]c2ccccc2c1C(c1ccccc1)c1cccs1` (configuration not stated), the outcome was inactive.

As to `Cc1ccccc1NC(=O)Cn1c(=O)n(CCc2ccccc2)c(=O)c2sc3ccccc3c21`, the call was inactive.

As to `COc1ccc(CCN2C(=O)c3[nH]nc(-c4ccccc4O)c3C2c2cccc(OC)c2)cc1` (configuration not stated), the “activity change, negative = inhibition” value was inactive: -30.9%.

Consider `Cc1cc(=O)n(CC(=O)Nc2ccc([N+](=O)[O-])cc2)c(-n2nc(C)cc2C)n1`, for which the “activity change, negative = inhibition” value was inactive: 8.47%.

As for `Cc1cc(C(F)(F)F)nn1-c1nc(-c2ccccc2)cc(C(F)(F)F)n1`, the “activity change, negative = inhibition” value is inactive: 9.9%.

Turning to `CCOC(=O)c1ccc(NC(=O)CC2C(=O)N(c3ccc(C)cc3)C(=O)N2C2CCCCC2)cc1` (configuration not stated), the “activity change, negative = inhibition” value was inactive: -4.6%.

As for `CCc1nn(CC(=O)NC(C)CC)c(=O)c2cc3c(OC)cccc3n12` (configuration not stated), the “activity change, negative = inhibition” value is inactive: 6.02%.

With `CCOC(=O)c1ccccc1NS(=O)(=O)c1ccc(N2CCCCS2(=O)=O)cc1`, the “activity change, negative = inhibition” value is inactive: 0.615%.

As for `COc1cc(NC(=O)c2nn(-c3ccc(C)cc3)c(=O)c3c2c2ccccc2n3C)cc(OC)c1OC`, the “activity change, negative = inhibition” value was inactive: 2.39%.

For `CN1CCN(c2oc(/C=C/c3ccc(F)cc3)nc2C#N)CC1`, the “activity change, negative = inhibition” value is inactive: 0.927%.

On to `Cc1cccc(-n2c(SCc3nc(-c4ccccc4C)no3)nnc2-c2ccccc2)c1`, for which the “activity change, negative = inhibition” value was inactive: 2.75%.

Take `COc1cc(C)ccc1OCCCn1c(-c2ccc(Cl)cc2)nc2ccccc2c1=O`: the “activity change, negative = inhibition” value was inactive: -3.82%.

Consider `Cc1cccn2c(=O)c(C(=O)NCc3ccccc3Cl)c(O)nc12`, for which the “activity change, negative = inhibition” value is inactive: -26.7%.

With `COc1cccc(N2CCN(C(=O)c3cc4c(=O)n(Cc5ccccc5)ccc4nc3C)CC2)c1`, the “activity change, negative = inhibition” value is inactive: 14.8%.

On to `CCOc1ccc(-n2nc(CO)c(C(=O)NCc3cccnc3)n2)cc1`, for which the “activity change, negative = inhibition” value is inactive: -4.8%.

Turning to `COc1ccc(-c2noc(-c3ccc(N4CCN(c5ccc(OC)cc5)CC4)c([N+](=O)[O-])c3)n2)cc1`, the “activity change, negative = inhibition” value is inactive: 9.02%.

`CCN(CC)CCCNC(=O)Cn1nc(C)n2c(cc3sccc32)c1=O`: the result was inactive.

For the compound `CCCCC(=O)Nc1cccc(-c2nc3ncccc3o2)c1C`, the “activity change, negative = inhibition” value was inactive: 2.35%.

As to `CCC(=O)N1c2ccccc2CC1C(=O)NCc1cccc(C)c1` (configuration not stated), the “activity change, negative = inhibition” value was inactive: -6.39%.

For the compound `Cc1ccccc1-c1nc(CS(=O)CC(=O)N2CCN(c3cc(Cl)ccc3C)CC2)c(C)o1` (configuration not stated), the “activity change, negative = inhibition” value is inactive: -7.43%.

As to `COc1ccc(OC)c(C(=O)c2c(N)c(-c3nc(-c4ccc(C)c(C)c4)cs3)c3ccccn23)c1`, the “activity change, negative = inhibition” value was inactive: 7.48%.

As to `Clc1cccc(CSc2nncn3c2cc2sccc23)c1`, the outcome was inactive.

As to `CCOc1cccc(C2Nc3ccccc3-c3cc(C)nn32)c1O` (configuration not stated), the “activity change, negative = inhibition” value was inactive: 10.9%.

Turning to `COc1ccc(NC(=O)c2ccc3oc(=O)c(S(=O)(=O)c4ccc(C)cc4)cc3c2)cc1OC`, the “activity change, negative = inhibition” value is inactive: -8.66%.

Turning to `CCc1ccccc1NC(=O)Cn1ccn(-c2cc(C)cc(C)c2)c(=O)c1=O`, the call was inactive.

In the case of `Cc1nn(S(=O)(=O)c2ccccc2)c(C)c1S(=O)(=O)N1CCC(C)CC1`, the “activity change, negative = inhibition” value was inactive: 39.2%.

As for `COc1ccc(Cn2nnc3c(=O)[nH]c(C4CCCN(C(=O)c5ccc(C)cc5)C4)nc32)cc1` (configuration not stated), the “activity change, negative = inhibition” value was inactive: 4.8%.

`COc1ccc(CCNC(=O)Cn2c(=O)n(-c3ccc(C)c(C)c3)c(=O)c3c(C)c(C)sc32)cc1OC`: the “activity change, negative = inhibition” value was inactive: 0.567%.

For `CCCCc1ccc(NC(=O)Cn2nnc3sc4c(c3c2=O)CCC(C)C4)cc1` (configuration not stated), the “activity change, negative = inhibition” value was inactive: 14.1%.

For the compound `Cc1ccc(C(=O)c2oc3ccccc3c2NC(=O)Cc2coc3cc(C)ccc23)cc1`, the “activity change, negative = inhibition” value is inactive: -1.51%.

Turning to `Cc1ccc(NC(=O)CSc2nc(C)c(Cc3ccccc3)c(=O)[nH]2)cc1C`, the “activity change, negative = inhibition” value is inactive: 2.44%.

For `CCOC(=O)C1(C)C=C(Nc2ccc(Br)cc2)C(=O)N1c1ccccc1` (configuration not stated), the “activity change, negative = inhibition” value is inactive: -2.77%.

In the case of `CCn1c(=NC(=O)c2ccc3c(c2)OCCO3)sc2c(C)ccc(OC)c21`, the outcome was inactive.

As to `COc1ccc(OC)c(C2NC(=O)NC(C)=C2C(=O)Nc2cc(C)cc(C)c2)c1` (configuration not stated), the compound was classed as inactive.

For `O=C(c1ccc2c(c1)N(Cc1ccccc1)C(=O)c1ccccc1S2(=O)=O)N1CCN(c2ccccc2)CC1`, the call was inactive.

On to `Cc1c(C(=O)N(Cc2ccc(N(C)C)cc2)C2CCS(=O)(=O)C2)oc2ccccc12` (configuration not stated), for which the “activity change, negative = inhibition” value is inactive: -13.8%.

Regarding `COc1cc(C(=O)CC2(O)C(=O)N(Cc3ccccc3Cl)c3ccccc32)cc(OC)c1OC` (configuration not stated), the “activity change, negative = inhibition” value was inactive: -11%.

Take `Cc1ccc2sc(N(Cc3cccnc3)C(=O)CCOc3ccccc3)nc2c1C`: the “activity change, negative = inhibition” value was inactive: 7.89%.

Turning to `CCN(C(=O)C(=O)Nc1ccc2nc3n(c(=O)c2c1)CCCCC3)c1ccc(F)cc1`, the “activity change, negative = inhibition” value was inactive: -28.1%.

Take `COc1ccc2c(CNCc3ccc(C)o3)c(C(=O)O)n(Cc3ccccc3C)c2c1`: the “activity change, negative = inhibition” value is inactive: 15.7%.
